# Assay results published in the supplement of paper PMC8728848.
# Some of the results follow.
# B1: OrysaEULS2 (Oryza sativa) (protein)
# chain: MVYCRANPNYAMTARNGAVVLAPANPKDEYQHWIKDMRWSTSIKDEEGYPAFALVNKATGQAIKHSLGQSHPVRLVPYNPEVMDESVLWTESRDVGNGFRCIRMVNNIYLNFDAFHGDKYHGGVRDGTDIVLWKWCEGDNQRWKIQPYYILEQKLISEEDLNSAVDHHHHHH
# Assays:
# Assay in all cases: glycan array binding signal (z-score within array); higher = stronger binding
# Conditions in all cases: glycan notation: IUPAC condensed, linker removed
# [1] = target: Fuc(a1-2)[Gal(a1-3)]Gal(b1-3)GlcNAc(b1-2)Man(a1-3)[Fuc(a1-2)[Gal(a1-3)]Gal(b1-3)GlcNAc(b1-2)Man(a1-6)]Man(b1-4)GlcNAc(b1-4)[Fuc(a1-6)]GlcNAc
# Procedure, shortened: (§1)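 The binding signal is a Z-score computed within each array and averaged over linkers. Arrays of the same protein sequence at different concentrations or buffers were also averaged together. Data originate from 3228 arrays in the Consortium for Functional Glycomics database, kept only where the protein sequence was available.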
# [2] = target: Fuc(a1-2)[Gal(a1-3)]Gal(b1-3)GlcNAc(b1-3)GalNAc
# Procedure, shortened: as §1
# [3] = target: Fuc(a1-2)[Gal(a1-3)]Gal(b1-3)GlcNAc(b1-6)GalNAc
# Procedure, shortened: as §1
# [4] = target: Fuc(a1-2)[Gal(a1-3)]Gal(b1-4)Glc
# Procedure, shortened: as §1
# [5] = target: Fuc(a1-2)[Gal(a1-3)]Gal(b1-4)GlcNAc
# Procedure, shortened: as §1
# [6] = target: Fuc(a1-2)[Gal(a1-3)]Gal(b1-4)GlcNAc(b1-2)Man
# Procedure, shortened: as §1
# [7] = target: Fuc(a1-2)[Gal(a1-3)]Gal(b1-4)GlcNAc(b1-2)Man(a1-3)[Fuc(a1-2)[Gal(a1-3)]Gal(b1-4)GlcNAc(b1-2)Man(a1-6)]Man(b1-4)GlcNAc(b1-4)GlcNAc
# Procedure, shortened: as §1
# [8] = target: Fuc(a1-2)[Gal(a1-3)]Gal(b1-4)GlcNAc(b1-2)Man(a1-3)[Fuc(a1-2)[Gal(a1-3)]Gal(b1-4)GlcNAc(b1-2)Man(a1-6)]Man(b1-4)GlcNAc(b1-4)[Fuc(a1-6)]GlcNAc
# Procedure, shortened: as §1
# [9] = target: Fuc(a1-2)[Gal(a1-3)]Gal(b1-4)GlcNAc(b1-3)GalNAc
# Procedure, shortened: as §1
# [10] = target: Fuc(a1-2)[Gal(a1-3)]Gal(b1-4)GlcNAc(b1-3)[Fuc(a1-2)[Gal(a1-3)]Gal(b1-4)GlcNAc(b1-6)]GalNAc
# Procedure, shortened: as §1
# [11] = target: Fuc(a1-2)[Gal(a1-3)]Gal(b1-4)GlcNAc(b1-6)GalNAc
# Procedure, shortened: as §1
# [12] = target: Fuc(a1-2)[Gal(a1-3)]Gal(b1-4)[Fuc(a1-3)]Glc
# Procedure, shortened: as §1
# [13] = target: Fuc(a1-2)[Gal(a1-3)]Gal(b1-4)[Fuc(a1-3)]GlcNAc
# Procedure, shortened: as §1
# [14] = target: Fuc(a1-2)[Gal(a1-3)]Gal(b1-4)[Fuc(a1-3)]GlcNAc(b1-3)GalNAc
# Procedure, shortened: as §1
# [15] = target: Fuc(a1-2)[Gal(a1-4)]Gal(b1-4)GlcNAc
# Procedure, shortened: as §1
# [16] = target: Fuc(a1-2)[GalNAc(a1-3)]Gal
# Procedure, shortened: as §1
# [17] = target: Fuc(a1-2)[GalNAc(a1-3)]Gal(b1-3)GalNAc(a1-3)[Fuc(a1-2)]Gal(b1-4)GlcNAc
# Procedure, shortened: as §1
# [18] = target: Fuc(a1-2)[GalNAc(a1-3)]Gal(b1-3)GalNAc(b1-3)Gal(a1-4)Gal(b1-4)Glc
# Procedure, shortened: as §1
# [19] = target: Fuc(a1-2)[GalNAc(a1-3)]Gal(b1-3)GlcNAc
# Procedure, shortened: as §1
# [20] = target: Fuc(a1-2)[GalNAc(a1-3)]Gal(b1-3)GlcNAc(b1-2)Man(a1-3)[Fuc(a1-2)[GalNAc(a1-3)]Gal(b1-3)GlcNAc(b1-2)Man(a1-6)]Man(b1-4)GlcNAc(b1-4)GlcNAc
# Procedure, shortened: as §1
# [21] = target: Fuc(a1-2)[GalNAc(a1-3)]Gal(b1-3)GlcNAc(b1-2)Man(a1-3)[Fuc(a1-2)[GalNAc(a1-3)]Gal(b1-3)GlcNAc(b1-2)Man(a1-6)]Man(b1-4)GlcNAc(b1-4)[Fuc(a1-6)]GlcNAc
# Procedure, shortened: as §1
# [22] = target: Fuc(a1-2)[GalNAc(a1-3)]Gal(b1-3)GlcNAc(b1-3)GalNAc
# Procedure, shortened: as §1
# [23] = target: Fuc(a1-2)[GalNAc(a1-3)]Gal(b1-3)GlcNAc(b1-6)GalNAc
# Procedure, shortened: as §1
# [24] = target: Fuc(a1-2)[GalNAc(a1-3)]Gal(b1-4)Glc
# Procedure, shortened: as §1
# [25] = target: Fuc(a1-2)[GalNAc(a1-3)]Gal(b1-4)GlcNAc
# Procedure, shortened: as §1
# [26] = target: Fuc(a1-2)[GalNAc(a1-3)]Gal(b1-4)GlcNAc(b1-2)Man
# Procedure, shortened: as §1
# [27] = target: Fuc(a1-2)[GalNAc(a1-3)]Gal(b1-4)GlcNAc(b1-2)Man(a1-3)[Fuc(a1-2)[GalNAc(a1-3)]Gal(b1-4)GlcNAc(b1-2)Man(a1-6)]Man(b1-4)GlcNAc(b1-4)GlcNAc
# Procedure, shortened: as §1
# [28] = target: Fuc(a1-2)[GalNAc(a1-3)]Gal(b1-4)GlcNAc(b1-2)Man(a1-3)[Fuc(a1-2)[GalNAc(a1-3)]Gal(b1-4)GlcNAc(b1-2)Man(a1-6)]Man(b1-4)GlcNAc(b1-4)[Fuc(a1-6)]GlcNAc
# Procedure, shortened: as §1
# [29] = target: Fuc(a1-2)[GalNAc(a1-3)]Gal(b1-4)GlcNAc(b1-3)Gal(b1-4)GlcNAc
# Procedure, shortened: as §1
# [30] = target: Fuc(a1-2)[GalNAc(a1-3)]Gal(b1-4)GlcNAc(b1-3)Gal(b1-4)GlcNAc(b1-3)Gal(b1-4)GlcNAc
# Procedure, shortened: as §1
# [31] = target: Fuc(a1-2)[GalNAc(a1-3)]Gal(b1-4)GlcNAc(b1-3)GalNAc
# Procedure, shortened: as §1
# [32] = target: Fuc(a1-2)[GalNAc(a1-3)]Gal(b1-4)GlcNAc(b1-3)[Fuc(a1-2)[GalNAc(a1-3)]Gal(b1-4)GlcNAc(b1-6)]GalNAc
# Procedure, shortened: as §1
# [33] = target: Fuc(a1-2)[GalNAc(a1-3)]Gal(b1-4)GlcNAc(b1-6)GalNAc
# Procedure, shortened: as §1
# [34] = target: Fuc(a1-2)[GalNAc(a1-3)]Gal(b1-4)[Fuc(a1-3)]GlcNAc
# Procedure, shortened: as §1
# [35] = target: Fuc(a1-2)[GalNAc(a1-3)]Gal(b1-4)[Fuc(a1-3)]GlcNAc(b1-3)GalNAc
# Procedure, shortened: as §1
# [36] = target: Fuc(a1-2)[GalNAc(a1-4)]Gal(b1-4)GlcNAc
# Procedure, shortened: as §1
# [37] = target: Fuc(a1-2)[GalNAc(b1-3)]Gal
# Procedure, shortened: as §1
# Fuc(a1-3)GlcNAc = target: Fuc(a1-3)GlcNAc
# Procedure, shortened: as §1
# [38] = target: Fuc(a1-3)[Gal(b1-4)]Glc6S
# Procedure, shortened: as §1
# [39] = target: Fuc(a1-3)[Gal(b1-4)]GlcNAc
# Procedure, shortened: as §1
# [40] = target: Fuc(a1-3)[Gal(b1-4)]GlcNAc(b1-2)Man
# Procedure, shortened: as §1
# [41] = target: Fuc(a1-3)[Gal(b1-4)]GlcNAc(b1-2)Man(a1-3)[Fuc(a1-3)[Gal(b1-4)]GlcNAc(b1-2)Man(a1-6)]Man(b1-4)GlcNAc(b1-4)GlcNAc
# Procedure, shortened: as §1
# [42] = target: Fuc(a1-3)[Gal(b1-4)]GlcNAc(b1-2)Man(a1-3)[Fuc(a1-3)[Gal(b1-4)]GlcNAc(b1-2)Man(a1-6)]Man(b1-4)GlcNAc(b1-4)[Fuc(a1-6)]GlcNAc
# Procedure, shortened: as §1
# [43] = target: Fuc(a1-3)[Gal(b1-4)]GlcNAc(b1-3)Gal(b1-3)[Fuc(a1-4)]GlcNAc
# Procedure, shortened: as §1
# [44] = target: Fuc(a1-3)[Gal(b1-4)]GlcNAc(b1-3)Gal(b1-4)[Fuc(a1-3)]GlcNAc
# Procedure, shortened: as §1
# [45] = target: Fuc(a1-3)[Gal(b1-4)]GlcNAc(b1-3)Gal(b1-4)[Fuc(a1-3)]GlcNAc(b1-3)Gal(b1-4)[Fuc(a1-3)]GlcNAc
# Procedure, shortened: as §1
# [46] = target: Fuc(a1-3)[Gal(b1-4)]GlcNAc(b1-3)GalNAc
# Procedure, shortened: as §1
# [47] = target: Fuc(a1-3)[Gal(b1-4)]GlcNAc(b1-4)Gal(b1-4)[Fuc(a1-3)]GlcNAc
# Procedure, shortened: as §1
# [48] = target: Fuc(a1-3)[Gal(b1-4)]GlcNAc(b1-4)Gal(b1-4)[Fuc(a1-3)]GlcNAc(b1-4)Gal(b1-4)[Fuc(a1-3)]GlcNAc
# Procedure, shortened: as §1
# [49] = target: Fuc(a1-3)[Gal(b1-4)]GlcNAc(b1-6)GalNAc
# Procedure, shortened: as §1
# [50] = target: Fuc(a1-3)[Gal(b1-4)]GlcNAc(b1-6)[Gal(b1-3)GlcNAc(b1-3)]Gal(b1-4)Glc
# Procedure, shortened: as §1
# [51] = target: Fuc(a1-3)[Gal(b1-4)]GlcNAc(b1-6)[Neu5Ac(a2-3)Gal(b1-3)]GalNAc
# Procedure, shortened: as §1
# [52] = target: Fuc(a1-3)[Gal(b1-4)]GlcNAc6S
# Procedure, shortened: as §1
# [53] = target: Fuc(a1-3)[Gal3S(b1-4)]Glc
# Procedure, shortened: as §1
# [54] = target: Fuc(a1-3)[Gal3S(b1-4)]GlcNAc
# Procedure, shortened: as §1
# [55] = target: Fuc(a1-3)[Gal3S(b1-4)]GlcNAc6S
# Procedure, shortened: as §1
# [56] = target: Fuc(a1-3)[GalNAc(b1-4)]GlcNAc
# Procedure, shortened: as §1
# [57] = target: Fuc(a1-3)[GalNAc(b1-4)]GlcNAc6S
# Procedure, shortened: as §1
# [58] = target: Fuc(a1-3)[GalNAc3S(b1-4)]GlcNAc
# Procedure, shortened: as §1
# Fuc(a1-4)GlcNAc = target: Fuc(a1-4)GlcNAc
# Procedure, shortened: as §1
binder,measurement,setting,value
B1,glycan array binding signal (z-score),[1],-0.193
same,glycan array binding signal (z-score),[2],-0.18
same,glycan array binding signal (z-score),[3],-0.168
same,glycan array binding signal (z-score),[4],-0.183
same,glycan array binding signal (z-score),[5],-0.167
same,glycan array binding signal (z-score),[6],-0.257
same,glycan array binding signal (z-score),[7],0.767
same,glycan array binding signal (z-score),[8],0.012
same,glycan array binding signal (z-score),[9],-0.198
same,glycan array binding signal (z-score),[10],-0.24
same,glycan array binding signal (z-score),[11],-0.21
same,glycan array binding signal (z-score),[12],-0.208
same,glycan array binding signal (z-score),[13],-0.195
same,glycan array binding signal (z-score),[14],-0.208
same,glycan array binding signal (z-score),[15],-0.183
same,glycan array binding signal (z-score),[16],-0.184
same,glycan array binding signal (z-score),[17],-0.156
same,glycan array binding signal (z-score),[18],-0.245
same,glycan array binding signal (z-score),[19],-0.189
same,glycan array binding signal (z-score),[20],-0.127
same,glycan array binding signal (z-score),[21],-0.207
same,glycan array binding signal (z-score),[22],-0.178
same,glycan array binding signal (z-score),[23],-0.158
same,glycan array binding signal (z-score),[24],-0.205
same,glycan array binding signal (z-score),[25],-0.2
same,glycan array binding signal (z-score),[26],-0.261
same,glycan array binding signal (z-score),[27],0.423
same,glycan array binding signal (z-score),[28],-0.189
same,glycan array binding signal (z-score),[29],-0.187
same,glycan array binding signal (z-score),[30],-0.175
same,glycan array binding signal (z-score),[31],-0.187
same,glycan array binding signal (z-score),[32],-0.194
same,glycan array binding signal (z-score),[33],-0.284
same,glycan array binding signal (z-score),[34],-0.197
same,glycan array binding signal (z-score),[35],-0.07
same,glycan array binding signal (z-score),[36],-0.189
same,glycan array binding signal (z-score),[37],-0.184
same,glycan array binding signal (z-score),Fuc(a1-3)GlcNAc,-0.154
same,glycan array binding signal (z-score),[38],-0.177
same,glycan array binding signal (z-score),[39],-0.192
same,glycan array binding signal (z-score),[40],-0.192
same,glycan array binding signal (z-score),[41],0.251
same,glycan array binding signal (z-score),[42],-0.176
same,glycan array binding signal (z-score),[43],-0.21
same,glycan array binding signal (z-score),[44],-0.27
same,glycan array binding signal (z-score),[45],-0.24
same,glycan array binding signal (z-score),[46],-0.194
same,glycan array binding signal (z-score),[47],-0.174
same,glycan array binding signal (z-score),[48],-0.163
same,glycan array binding signal (z-score),[49],-0.16
same,glycan array binding signal (z-score),[50],-0.183
same,glycan array binding signal (z-score),[51],-0.16
same,glycan array binding signal (z-score),[52],-0.167
same,glycan array binding signal (z-score),[53],-0.277
same,glycan array binding signal (z-score),[54],-0.194
same,glycan array binding signal (z-score),[55],-0.186
same,glycan array binding signal (z-score),[56],-0.162
same,glycan array binding signal (z-score),[57],-0.208
same,glycan array binding signal (z-score),[58],-0.163
same,glycan array binding signal (z-score),Fuc(a1-4)GlcNAc,-0.208
